Laboratory results from ChEMBL document CHEMBL1157539, “Thousands of chemical starting points for antimalarial lead identification” (Nature, 2010).
In all, about 13,000 compounds were measured (“IFI”: median about 4, highest 2% from about 17 on). The list shows a part of the results.

Test: GSK_TCMDC: Inhibition Frequency Index (IFI). The number of non-kinase HTS assays where a compound showed > 50 % inhibition, expressed as a percentage of the number of such assays in which the compound was tested (-0 is zero)
Assay type: functional
With `CN(C)CCCNc1ncnc2c1[nH]c1ccc(F)cc12` the IFI was 2.14%.
Work on `O=S(=O)(ON=C1CCc2ccccc21)c1ccc(Cl)cc1` yielded an IFI of 1%.
`O=S(=O)(NCCN1CCCC1)c1ccc(-c2cccc(CNCc3ccc(F)cc3)c2)cc1F` gave an IFI of 11.4%.
Compound `CCOCCCn1c(=N)c(C(=O)NCc2ccc(OC)cc2)cc2c(=O)n3cccc(C)c3nc21` has an IFI of 4.3%.
In the case of `Cc1ccc2c(=NN=CC=Cc3ccccc3)cc(C)[nH]c2c1`, the IFI is reported as 1.52%.
`CCCCn1c(Sc2ccc(C#N)c([N+](=O)[O-])c2)nnc1-c1cccc(Cl)c1` showed an IFI of 5.63%.
Compound `Cc1ccc2c(c1C)NC(=O)C21NN=C(c2ccccc2)S1` (configuration not stated) has an IFI of 10.1%.
`CC(=O)Nc1cccc(C(=O)Nc2cccc(-c3csc(-c4nc5ccccc5[nH]4)c3)c2)c1` showed an IFI of 5.5%.
With `CN1CCCN(Cc2ccc(-c3ccc(NC(=O)c4ccc(C#N)cc4)cc3)cc2)CC1` the IFI was 3.09%.
Work on `c1ccc(COc2ccnc(NCCCOc3cccc(CN4CCCCC4)c3)c2)cc1` yielded an IFI of 5.59%.
`COc1ccc2nccc([C@@H](O)CN3CCC(NCc4cnc5c(c4)NC(=O)CS5)CC3)c2c1` gave an IFI of 2.17%.
Compound `CCOC(=O)c1c(C)n(-c2ccccc2)c2ccc(O)cc12` has an IFI of 2.99%.
With `O=C(OCC1CCN(Cc2ccccc2)C1)c1ccc(Cl)cc1` (configuration not stated) the IFI was 0.73%.
`CN1CCN(Cc2cccc(Nc3nccc(Nc4ccc(Oc5ccccc5)cc4)n3)c2)CC1` gave an IFI of 3.01%.
In the case of `CCOC(=O)c1cc(Cl)cc(Cl)c1OCCCON1C(=N)N=C(N)NC1(C)C`, the IFI is reported as 4.48%.
Compound `Cc1cc(=NN=Cc2ccccc2)c2cc(C(F)(F)F)ccc2[nH]1` has an IFI of 6.61%.
Work on `Cc1cccc(Nc2nccc(NCC(O)c3ccc(C(F)(F)F)cc3)n2)c1` (configuration not stated) yielded an IFI of 12%.
`Cc1noc(C)c1-c1ccc2c(Nc3ccccc3C(C)(C)C)c(C(=O)NCc3ccc(OC(C)C)cc3)cnc2c1` showed an IFI of -0%.
For `N#Cc1cccc(NC(=O)Nc2ccc(-c3ccc(-c4nc5cc(C(F)(F)F)ccc5[nH]4)cc3)cc2)c1`, the IFI was 5%.
`OC(c1ccc2ccccc2c1)C1CN(CCc2ccccc2)CCC1(O)c1ccccc1` (configuration not stated) showed an IFI of 0.76%.
`CN1CCCN(Cc2cccc(-c3ccc(NS(=O)(=O)c4cccc5cccnc45)cc3)c2)CC1` showed an IFI of 13%.
For `CC(=O)Nc1nc(C(=O)Nc2cccc(-c3ccc4c(cnn4CC4CC4)c3)c2)cs1`, the IFI was 3%.
With `CCCN(CCC)CCCNc1ccc(C(=O)Nc2ccc(OCC)cc2)cc1[N+](=O)[O-]` the IFI was 2.92%.
`COc1cc(C=NNc2ccnc3cc(Cl)ccc23)ccc1O` showed an IFI of 7.97%.
In the case of `CCNc1cc(C(=O)N[C@@H](Cc2ccc(Cl)cc2)[C@H](O)CNC2CCCCC2)cc(N2CCCCS2(=O)=O)c1`, the IFI is reported as 0.76%.
In the case of `COc1ccc2nc(/N=C3\NC(c4ccccn4)(c4ccccn4)C(=O)N3C)[nH]c2c1`, the IFI is reported as 5.43%.
`COc1ccc(C(=O)Nc2ccc3oc(-c4ccc(C(F)(F)F)cc4)cc3c2)cc1CCCN(C)C` gave an IFI of 9.17%.
`O=[N+]([O-])c1ccccc1/C=N/Nc1ccnc2cc(Cl)ccc12` showed an IFI of 0.75%.
In the case of `Oc1ccc(CN2Cc3ccccc3OC3(CCN(Cc4c[nH]c5cnccc45)CC3)C2)cc1`, the IFI is reported as 1.64%.
With `C=C[C@H]1CN2CC[C@H]1C[C@@H]2[C@@H](O)c1ccnc2ccc(OC)cc12` the IFI was -0%.
In the case of `CCN1CCN(Cc2ccc3nc(-c4cc(C)n(Cc5cc(Cl)ccc5OCc5ccccc5)n4)[nH]c3c2)CC1`, the IFI is reported as 14.9%.
`COc1ccc(NC(=O)Nc2ccc(Nc3nc(C)cc(N4CCCC4)n3)cc2)cc1` gave an IFI of 11.8%.
`CN1CCC(NCc2ccc(-c3ccc(S(=O)(=O)NCc4ccccc4)c(F)c3)cc2)CC1` gave an IFI of 9.35%.
Compound `COc1ccc2nccc([C@@H](O)CN3CCC(NCc4nc5cc(F)c(F)cc5[nH]4)CC3)c2c1` has an IFI of 5.11%.
`Cc1c(Cn2ncc(N3CCC(N)CC3)c(Cl)c2=O)cccc1NC(=O)Nc1ccc(-c2ccccc2)cc1` showed an IFI of 8.9%.
With `CC(=O)c1ccc(-c2ccc(C(=O)NCCCCN3CCC(c4ccc5c(c4OCC(N)=O)CCCC5)CC3)cc2)s1` the IFI was 1.57%.
`Cc1cc(N)c2cc(NC(=O)CCC(=O)Nc3ccc4nc(C)cc(N)c4c3)ccc2n1` showed an IFI of 7.91%.
Work on `COc1ccc(N2C(N)=NC(N)=NC2(C)C)cc1OC` yielded an IFI of 0.72%.
Work on `Cn1nccc1C(=O)NCCNCc1cccc(-c2ccc(-c3nc4cc(C(F)(F)F)ccc4[nH]3)s2)c1` yielded an IFI of 9.71%.
For `Clc1cc(Nc2ncnc3sc(C#C[C@H]4CCCN4)cc23)ccc1OCc1cccnc1Cl`, the IFI was 7.19%.
For `CC(=O)c1ccc2c(c1)C(NC(=O)c1cccc(Cl)c1Cl)C(CO)C(C)(C)O2` (configuration not stated), the IFI was 3.08%.
For `COC(=O)c1cccc(CNCc2cccc(-c3ccc(-c4nc5cccc(C)c5[nH]4)cc3)c2)c1`, the IFI was 4.81%.
For `CC(Oc1ccc(Cl)cc1)C(=O)N(C)C1CCN(CCCCCNC(=O)/C=C/c2ccc(Cl)c(Cl)c2)CC1` (configuration not stated), the IFI was 11.6%.
`CC[C@H](NC(=O)c1c(CCCN2CCN(c3ccccc3)CC2)c(-c2ccccc2)nc2cc(O)ccc12)c1ccccc1` gave an IFI of 4.69%.
`CCCCCCc1cnc2nc(N)nc(N)c2c1C` gave an IFI of 2.9%.
`O=C(CCc1c[nH]cn1)Nc1cccc(-c2cccc(-c3nc4ccccc4[nH]3)c2)c1` showed an IFI of 0.86%.
`CCOc1cc(C(C)C)ccc1C1CCN(CCCCNC(=O)c2ccc(NC(=O)c3ccc(Cl)cc3)cc2)CC1` showed an IFI of 8.04%.
In the case of `O=C(NCc1cccs1)[C@H](Cc1ccccc1)Nc1ccnc(NCC2CCCCC2)n1`, the IFI is reported as 6.82%.
`CS(=O)(=O)c1ccc(CNCc2ccc(-c3ccc(-c4nc5cc(F)ccc5[nH]4)s3)cc2)cc1` showed an IFI of 9.52%.
Compound `CC(C)COc1ccc(Cl)cc1Cc1ccc(-c2nc3ccc(F)cc3[nH]2)o1` has an IFI of 15.5%.
With `CC(=O)c1cccc2c(NC(=O)Nc3ccc4nccc(N5CCN(C)CC5)c4c3)cccc12` the IFI was 5.11%.
`C[C@@H](COc1ccccc1)NCC(O)c1ccc([N+](=O)[O-])c(OCc2ccccc2)c1` (some centres not stated) showed an IFI of 1.52%.
In the case of `CC1(C)N=C(N)N=C(Nc2ccc(F)c(F)c2)N1`, the IFI is reported as 1.65%.
In the case of `COc1cc(CNC[C@@H](O)[C@H](Cc2ccccc2)NC(=O)c2cc(C3CCCC3)cc(N3CCCC3=O)c2)cc(OC)c1`, the IFI is reported as 4.93%.
`Cc1ccc(S(=O)(=O)n2nccc2-c2c(-c3ccc(Cl)cc3)noc2C)cc1` showed an IFI of 1.75%.
In the case of `Clc1ccc(-c2ccc(CNCCCN3CCCC3)cc2)cc1`, the IFI is reported as 1.43%.
`Cc1ccc(C)c(NC(=O)Nc2ccc(Nc3nc(C)cc(N4CCOCC4)n3)cc2)c1` gave an IFI of 7.32%.
